The assay relates to adipose tissue TG synthesis and lipolysis. The settings on record: for adipose tissue TG synthesis: ob/ob mice treated with leptin.

Where two headings read alike, the source gives them in different places.

B1: leptin: leptin administered to ob/ob mice (protein, UniProt P41160 22-167, looked up)
Leptin: VPIQKVQDDTKTLIKTIVTRINDISHTQSVSAKQRVTGLDFIPGLHPILSLSKMDQTLAVYQQVLTSLPSQNVLQIANDLENLRDLLHLLAFSKSCSLPQTSGLQKPESLDGVLEASLYSTEVVALSRLQGSLQDILQQLDVSPEC
Take B1: the “adipose tissue TG synthesis” value was “suppressed”. Moreover, the “adipose tissue TG synthesis” value (listed as Leptin) is listed as “significant decrease”. Also, the adipose lipolysis entry (obese mice, leptin administration) was “suppressed”.

The values are drawn from US10466253B2, “Molecular flux rates through critical pathways measured by stable isotope labeling in vivo, as biomarkers of drug action and disease activity” (The Regents of the University of California, priority 2004, dated 2019).
